Measured values taken from the supplement of paper PMC8728848.
This is one part of the list.

How the values were obtained:
Test in all cases: glycan array binding signal (z-score within array); higher = stronger binding
Conditions in all cases: glycan notation: IUPAC condensed, linker removed
[1] = biological target: Neu5Ac(a2-3)Gal(b1-4)GlcNAc(b1-6)GalNAc
Summary of the method: (§1)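 Glycan array data came from 3228 arrays in the Consortium for Functional Glycomics database, and only arrays with an available protein sequence were kept. Glycan names were put into IUPAC-condensed notation, and columns mapping to the same glycan were averaged. The binding signal is a within-array Z-score, averaged across arrays of one protein sequence run at different concentrations or buffers and across linkers. A negative Z-score can be read as non-binding.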

[2] = biological target: Neu5Ac(a2-3)Gal(b1-4)GlcNAc(b1-6)[Gal(b1-3)]GalNAc
Summary of the method: as §1

[3] = biological target: Neu5Ac(a2-3)Gal(b1-4)GlcNAc(b1-6)[Neu5Ac(a2-3)Gal(b1-3)]GalNAc
Summary of the method: as §1

[4] = biological target: Neu5Ac(a2-3)Gal(b1-4)GlcNAc6S
Summary of the method: as §1

[5] = biological target: Neu5Ac(a2-3)Gal(b1-4)[Fuc(a1-3)]GlcNAc
Summary of the method: as §1

[6] = biological target: Neu5Ac(a2-3)Gal(b1-4)[Fuc(a1-3)]GlcNAc(b1-2)Man
Summary of the method: as §1

[7] = biological target: Neu5Ac(a2-3)Gal(b1-4)[Fuc(a1-3)]GlcNAc(b1-3)Gal
Summary of the method: as §1

[8] = biological target: Neu5Ac(a2-3)Gal(b1-4)[Fuc(a1-3)]GlcNAc(b1-3)Gal(b1-4)GlcNAc
Summary of the method: as §1

[9] = biological target: Neu5Ac(a2-3)Gal(b1-4)[Fuc(a1-3)]GlcNAc(b1-3)Gal(b1-4)[Fuc(a1-3)]GlcNAc(b1-3)Gal(b1-4)[Fuc(a1-3)]GlcNAc
Summary of the method: as §1

[10] = biological target: Neu5Ac(a2-3)Gal(b1-4)[Fuc(a1-3)]GlcNAc(b1-3)GalNAc
Summary of the method: as §1

[11] = biological target: Neu5Ac(a2-3)Gal(b1-4)[Fuc(a1-3)]GlcNAc(b1-6)[Gal(b1-3)]GalNAc
Summary of the method: as §1

[12] = biological target: Neu5Ac(a2-3)Gal(b1-4)[Fuc(a1-3)]GlcNAc(b1-6)[Neu5Ac(a2-3)Gal(b1-3)]GalNAc
Summary of the method: as §1

[13] = biological target: Neu5Ac(a2-3)Gal(b1-4)[Fuc(a1-3)]GlcNAc6S
Summary of the method: as §1

[14] = biological target: Neu5Ac(a2-3)Gal6S(b1-4)GlcNAc
Summary of the method: as §1

[15] = biological target: Neu5Ac(a2-3)Gal6S(b1-4)[Fuc(a1-3)]GlcNAc
Summary of the method: as §1

Neu5Ac(a2-3)GalNAc = biological target: Neu5Ac(a2-3)GalNAc
Summary of the method: as §1

[16] = biological target: Neu5Ac(a2-3)GalNAc(b1-4)GlcNAc
Summary of the method: as §1

[17] = biological target: Neu5Ac(a2-3)[GalNAc(b1-4)]Gal(b1-4)Glc
Summary of the method: as §1

[18] = biological target: Neu5Ac(a2-3)[GalNAc(b1-4)]Gal(b1-4)GlcNAc
Summary of the method: as §1

[19] = biological target: Neu5Ac(a2-3)[GalNAc(b1-4)]Gal(b1-4)GlcNAc(b1-3)GalNAc
Summary of the method: as §1

[20] = biological target: Neu5Ac(a2-3)[Neu5Ac(a2-6)]GalNAc
Summary of the method: as §1

Neu5Ac(a2-6)Gal = biological target: Neu5Ac(a2-6)Gal
Summary of the method: as §1

[21] = biological target: Neu5Ac(a2-6)Gal(b1-3)GlcNAc(b1-3)[Gal(b1-4)GlcNAc(b1-6)]Gal(b1-4)Glc
Summary of the method: as §1

Neu5Ac(a2-6)Gal(b1-4)Glc = biological target: Neu5Ac(a2-6)Gal(b1-4)Glc
Summary of the method: as §1

[22] = biological target: Neu5Ac(a2-6)Gal(b1-4)GlcNAc
Summary of the method: as §1

[23] = biological target: Neu5Ac(a2-6)Gal(b1-4)GlcNAc(b1-2)Man
Summary of the method: as §1

[24] = biological target: Neu5Ac(a2-6)Gal(b1-4)GlcNAc(b1-2)Man(a1-3)Man(b1-4)GlcNAc(b1-4)GlcNAc
Summary of the method: as §1

[25] = biological target: Neu5Ac(a2-6)Gal(b1-4)GlcNAc(b1-2)Man(a1-3)[Gal(b1-4)GlcNAc(b1-2)Man(a1-6)]Man(b1-4)GlcNAc(b1-4)GlcNAc
Summary of the method: as §1

[26] = biological target: Neu5Ac(a2-6)Gal(b1-4)GlcNAc(b1-2)Man(a1-3)[GlcNAc(b1-2)Man(a1-6)]Man(b1-4)GlcNAc(b1-4)GlcNAc
Summary of the method: as §1

[27] = biological target: Neu5Ac(a2-6)Gal(b1-4)GlcNAc(b1-2)Man(a1-3)[GlcNAc(b1-4)][Neu5Ac(a2-6)Gal(b1-4)GlcNAc(b1-2)Man(a1-6)]Man(b1-4)GlcNAc(b1-4)GlcNAc
Summary of the method: as §1

[28] = biological target: Neu5Ac(a2-6)Gal(b1-4)GlcNAc(b1-2)Man(a1-3)[Man(a1-6)]Man(b1-4)GlcNAc(b1-4)GlcNAc
Summary of the method: as §1

[29] = biological target: Neu5Ac(a2-6)Gal(b1-4)GlcNAc(b1-2)Man(a1-3)[Neu5Ac(a2-3)Gal(b1-4)GlcNAc(b1-2)Man(a1-6)]Man(b1-4)GlcNAc(b1-4)GlcNAc
Summary of the method: as §1

[30] = biological target: Neu5Ac(a2-6)Gal(b1-4)GlcNAc(b1-2)Man(a1-3)[Neu5Ac(a2-6)Gal(b1-4)GlcNAc(b1-2)Man(a1-6)]Man(b1-4)GlcNAc(b1-4)GlcNAc
Summary of the method: as §1

[31] = biological target: Neu5Ac(a2-6)Gal(b1-4)GlcNAc(b1-2)Man(a1-3)[Neu5Ac(a2-6)Gal(b1-4)GlcNAc(b1-2)Man(a1-6)]Man(b1-4)GlcNAc(b1-4)[Fuc(a1-6)]GlcNAc
Summary of the method: as §1

[32] = biological target: Neu5Ac(a2-6)Gal(b1-4)GlcNAc(b1-2)Man(a1-6)Man(b1-4)GlcNAc(b1-4)GlcNAc
Summary of the method: as §1

[33] = biological target: Neu5Ac(a2-6)Gal(b1-4)GlcNAc(b1-2)Man(a1-6)[Gal(b1-4)GlcNAc(b1-2)Man(a1-3)]Man(b1-4)GlcNAc(b1-4)GlcNAc
Summary of the method: as §1

[34] = biological target: Neu5Ac(a2-6)Gal(b1-4)GlcNAc(b1-2)Man(a1-6)[GlcNAc(b1-2)Man(a1-3)]Man(b1-4)GlcNAc(b1-4)GlcNAc
Summary of the method: as §1

[35] = biological target: Neu5Ac(a2-6)Gal(b1-4)GlcNAc(b1-2)Man(a1-6)[Man(a1-3)]Man(b1-4)GlcNAc(b1-4)GlcNAc
Summary of the method: as §1

[36] = biological target: Neu5Ac(a2-6)Gal(b1-4)GlcNAc(b1-2)[Neu5Ac(a2-6)Gal(b1-4)GlcNAc(b1-4)]Man(a1-3)[GlcNAc(b1-4)][Neu5Ac(a2-6)Gal(b1-4)GlcNAc(b1-2)[Neu5Ac(a2-6)Gal(b1-4)GlcNAc(b1-6)]Man(a1-6)]Man(b1-4)GlcNAc(b1-4)GlcNAc
Summary of the method: as §1

[37] = biological target: Neu5Ac(a2-6)Gal(b1-4)GlcNAc(b1-2)[Neu5Ac(a2-6)Gal(b1-4)GlcNAc(b1-4)]Man(a1-3)[GlcNAc(b1-4)][Neu5Ac(a2-6)Gal(b1-4)GlcNAc(b1-4)Man(a1-6)]Man(b1-4)GlcNAc(b1-4)GlcNAc
Summary of the method: as §1

[38] = biological target: Neu5Ac(a2-6)Gal(b1-4)GlcNAc(b1-2)[Neu5Ac(a2-6)Gal(b1-4)GlcNAc(b1-6)]Man(a1-6)[Neu5Ac(a2-6)Gal(b1-4)GlcNAc(b1-2)Man(a1-3)][GlcNAc(b1-4)]Man(b1-4)GlcNAc(b1-4)GlcNAc
Summary of the method: as §1

[39] = biological target: Neu5Ac(a2-6)Gal(b1-4)GlcNAc(b1-3)Gal(b1-3)GlcNAc
Summary of the method: as §1

[40] = biological target: Neu5Ac(a2-6)Gal(b1-4)GlcNAc(b1-3)Gal(b1-4)GlcNAc
Summary of the method: as §1

[41] = biological target: Neu5Ac(a2-6)Gal(b1-4)GlcNAc(b1-3)Gal(b1-4)GlcNAc(b1-2)Man(a1-3)[Neu5Ac(a2-6)Gal(b1-4)GlcNAc(b1-3)Gal(b1-4)GlcNAc(b1-2)Man(a1-6)]GalNAc
Summary of the method: as §1

[42] = biological target: Neu5Ac(a2-6)Gal(b1-4)GlcNAc(b1-3)Gal(b1-4)GlcNAc(b1-3)Gal(b1-4)GlcNAc
Summary of the method: as §1

[43] = biological target: Neu5Ac(a2-6)Gal(b1-4)GlcNAc(b1-3)Gal(b1-4)GlcNAc(b1-3)Gal(b1-4)GlcNAc(b1-2)Man(a1-3)[Neu5Ac(a2-6)Gal(b1-4)GlcNAc(b1-3)Gal(b1-4)GlcNAc(b1-3)Gal(b1-4)GlcNAc(b1-2)Man(a1-6)]GalNAc
Summary of the method: as §1

B1: SP16663B-bot-321-25-321 (Bacteroides ovatus) (protein)
chain: DDDDEVTMNSKFYLSTKVFPVDSYEASLSVILKDNSVVVNELQPNYRFVACATERLSKDVKITADSDDNLVSAYNKANDTEYNILPAENYSFTNKTVTIENGESVSGDSIKIELLNVGSLTTEGGYLLPVTISSIEGNNLDALSSNRGVVYLKIQNIHVNVESGQPAEGTLIADRSGWTVKVAPTTRGDAKNLIDGTNSDVARDGGAEYWLTVDIGKVQTLTGIRNKCYASSYSPTAVEVFTSSDGAKWKSIGAVTISKSGTQYIKFSKAVETRYLKYYVKQGPNTVSLTEFDLYAK
glycan array binding signal (z-score) [1]: 0.427
glycan array binding signal (z-score) [2]: -0.328
glycan array binding signal (z-score) [3]: -0.067
glycan array binding signal (z-score) [4]: 0.308
glycan array binding signal (z-score) [5]: -0.258
glycan array binding signal (z-score) [6]: -0.785
glycan array binding signal (z-score) [7]: -0.185
glycan array binding signal (z-score) [8]: 0.234
glycan array binding signal (z-score) [9]: 0.06
glycan array binding signal (z-score) [10]: 0.75
glycan array binding signal (z-score) [11]: 0.154
glycan array binding signal (z-score) [12]: 0.471
glycan array binding signal (z-score) [13]: -0.406
glycan array binding signal (z-score) [14]: 0.161
glycan array binding signal (z-score) [15]: -0.592
glycan array binding signal (z-score) (Neu5Ac(a2-3)GalNAc): 0.236
glycan array binding signal (z-score) [16]: -0.562
glycan array binding signal (z-score) [17]: -0.278
glycan array binding signal (z-score) [18]: -0.457
glycan array binding signal (z-score) [19]: 0.96
glycan array binding signal (z-score) [20]: -0.057
glycan array binding signal (z-score) (Neu5Ac(a2-6)Gal): 0.533
glycan array binding signal (z-score) [21]: -0.17
glycan array binding signal (z-score) (Neu5Ac(a2-6)Gal(b1-4)Glc): -0.413
glycan array binding signal (z-score) [22]: 0.201
glycan array binding signal (z-score) [23]: -0.599
glycan array binding signal (z-score) [24]: 0.36
glycan array binding signal (z-score) [25]: 0.344
glycan array binding signal (z-score) [26]: -0.119
glycan array binding signal (z-score) [27]: 0.818
glycan array binding signal (z-score) [28]: -0.071
glycan array binding signal (z-score) [29]: -0.108
glycan array binding signal (z-score) [30]: -0.195
glycan array binding signal (z-score) [31]: 0.583
glycan array binding signal (z-score) [32]: -0.205
glycan array binding signal (z-score) [33]: -0.492
glycan array binding signal (z-score) [34]: -0.006
glycan array binding signal (z-score) [35]: -0.484
glycan array binding signal (z-score) [36]: -0.333
glycan array binding signal (z-score) [37]: -0.199
glycan array binding signal (z-score) [38]: 0.493
glycan array binding signal (z-score) [39]: -0.392
glycan array binding signal (z-score) [40]: -0.642
glycan array binding signal (z-score) [41]: -0.533
glycan array binding signal (z-score) [42]: -0.33
glycan array binding signal (z-score) [43]: 0.133
